Measured values taken from the RNAGym collection of RNA variant scans (doi:10.7554/elife.90254).
Read counts are not given, so values of variants with three or more changes are uncertain.

B1: LINE1-full (parent)
chain: UACGUAGGUGGUUUUCCCCUGAUAGUGCUAAGGGGGCCUGGAAGUUUGGACUGGGCAGAGCUCAACACAGCGUGGCAAAGUGGCUGUGGCUAGACUGCCUCUCUGGAUUCCUCGUCACUCAGCAGGGCAUCUCUGAGAGAAAUGCC

Variants of: B1
Assay: self-cleavage, relative activity (ratio to wild type); higher = more cleavage; in vitro, sequencing; the parent is a self-cleaving ribozyme

Row | Variant | self-cleavage
1 | A67G G105U U115C A121G U134G | 0.95
2 | G4U U15C U20C | 1.02
3 | A30G A67U A129U U132C | 0.24
4 | U73A A79G C118U U130C | 1.39
5 | A31G A42G A117C U130C A138U | 2.45
6 | U5C A78G U115A | 0
7 | A22U A43G G80A | 1.62
8 | U9A U23C U52A U109C | 1.39
9 | U5C U108C A121U | 0.92
10 | U15C A57G A64U C71U U85A U100C | 0
11 | A59G A69G U85C | 0
12 | A57U A136U A140G | 0.02
13 | U15A A22C A57U A92G A141C | 0
14 | U13C A42C A121G | 1.31
15 | A42G A136U A142G | 1.23
16 | U20C U102C A138C | 1.6
17 | A42G A69G G144A | 0.24
18 | A57G A69C U132C | 0
19 | U13C U47C U130C C146A | 0.4
20 | A65U U73C A142G | 0
21 | A117U A121G U134A | 1.93

Row | Variant | self-cleavage
22 | U81C A92G A121U | 0
23 | A24G G34A A59G C95U | 0.09
24 | U47C A57G U112C | 0
25 | U104C U109C A138G | 0.71
26 | U26C U29A U73A A107G A138U | 2.47
27 | C38U U46C U87C U108C U130C U143C | 0.63
28 | U12G U26C G54U U96C A141G | 0
29 | G7A A59G G60A U91C | 0.05
30 | U13C G33A A77G A138U | 1.09
31 | G11A U29C A30U G34U | 0.54
32 | U5A A64U A65G A69G | 0.25
33 | A50U A79G G86A | 0.04
34 | A43G U52A A117G | 1.2
35 | G55A U109C C116U | 0.1
36 | U12C U26A A43G A94G A124U A142G | 0
37 | U39A A59G A64U U108C | 0
38 | U20C A69G G82A | 1.01
39 | U14C A57U U102C | 0.19
40 | U15A G25C U102C A129G G139A U143A | 0
41 | A2G U12A A69G | 0.64
42 | U9A A67U U81G C118A A140G A141G | 0.12

Row | Variant | self-cleavage
43 | A31U A43G A78G | 1.49
44 | G4A U45A U52C U119C | 0.84
45 | A22G U45A A50U | 0.97
46 | U12A C66A A140C | 0.12
47 | U46C C66U A94G | 0.03
48 | A24C C90G U132A | 0.09
49 | U12A U14C G89A | 0
50 | A57U A69U U96A | 0.06
51 | U14C U15C U62C A67G A77C U81A A117C | 0
52 | U1C U132C U134G | 1.97
53 | U47C G55U U73C G114A U143A | 0.86
54 | A22G G34A C37G | 1.53
55 | U29C U100C A140G | 2.7
56 | G82A U109C U119C | 2.01
57 | U15C U87C U96C G127A U130C U143C | 0.16
58 | G40U A77G U115A G127A | 2.39
59 | A124G A129C U134C | 0.5
60 | A6U G34A A92G U102C A140G | 0.2
61 | G53U G83A A92G A107G U130C | 0
62 | U1C U87C C103U A124U | 0.05
63 | U14C G106A U115C | 1.01

Row | Variant | self-cleavage
64 | U45C A59G C113U | 0.08
65 | G21A G35A U47C U104C A121G G144A | 2.02
66 | U12C U52A A65G U96C | 0
67 | U39A A59G A64C G127U | 0.1
68 | A50U C63U G106C | 0.13
69 | A59G A79G A141G | 0.25
70 | U15A G40A U45C A117C | 1.12
71 | U1A U23C A78G | 2.92
72 | A42G A77G C146U | 1.2
73 | U102C U134C C146U | 0.45
74 | U96G A124G A140G | 0.71
75 | A42G A67C U115C | 0
76 | G40A A64G G105A | 0.12
77 | A43U U87A A94G U134A | 0.17
78 | U14A A65G A136G G144A | 0
79 | U1A A67U U102C U132C | 0.5
80 | G35A A43U U62C A136G | 0.01
81 | A50G A65G U91C | 0
82 | U15C G33A U46A A64G U102C A117G | 0.69
83 | C51A A94U U100A U102C | 0.53
